To fix the notation:
B1: UniProt A0EPZ9; numbered along this chain (parent)
chain: MDWQKSLTLIVALTLSRGIGLKNDLPWKLKSDMMFFSRVTSGLLVTRSTGQMNVVLMGRKTWESLPAHSRPLKNRINVVISRQEVLDLGGGAYHARSLDDALALLSQIYDSTSKIQLNRVFVIGGGELCKAAMEHSRLNRIIATVIHNEVDCDVFFPIDFRSSQSCLPWRKQDHSVLEAWVGSKVPQGKINENGFIYEFEMWIRDI

This series covers variants of B1. Nature of the series: selection coefficient against synonymous wild-type codons (log2 per generation); higher = faster growth than wild type. Conditions: with Saccharomyces cerevisiae carrying the variant on a plasmid. How it is done:
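Pooled growth of yeast carrying single-residue variants of P. jirovecii dihydrofolate reductase (own DFR1 gene intact), two passages at 30 °C, three cultures, sequenced before and after. Codons with under 15 starting reads are left out; codons of one change are averaged.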

± gives the standard deviation of the averaged measurements. Growth of baker's yeast expressing single-residue variants of Pneumocystis jirovecii dihydrofolate reductase in 8.8 or 44 µM methotrexate (about 75% and 90% inhibition of the wild type). Selection coefficient per generation; 0 = like wild type, above 0 = less sensitive, below 0 = more sensitive or loss of function. No active / inactive call per row; the paper calls resistant above 0.220 (8.8 µM) or 0.243 (44 µM) together with a significance test. At 44 µM about 15% of codons end with one read or none, so the lowest values are floors (replicate rank correlation 0.74; 0.94 at 8.8 µM).

Consider MDWQKSLTLIVALTLSRGIGLKNDLPWKLKSDMMFFSRVTSGLLVTRSTGQMNVVLMGRKTWESLPAHSRPLKNRINVVISRQEVLDLGGGAYHARSLDDALALLSQIYDSTSKIQLNRVFVIGGGELCKAAMEHSRLNRIIATVIHNEVDCDVFFPIDFRSSQSCLPWRKQDHSVLEAKVGSKVPQGKINENGFIYEFEMWIRDI [W180K], for which the “selection coefficient against synonymous wild-type codons (log2)” value (shortened to “selection coefficient … (log2)”) is -0.223 ± 0.034 (methotrexate 8.8 µM) and -0.118 ± 0.0097 (methotrexate 44 µM).

MDWQKSLTLIVALTLSRGIGLKNDLPWKLKSDMMFFSRVTSGLLVTRSTGQMNVVLMGRKTWESIPAHSRPLKNRINVVISRQEVLDLGGGAYHARSLDDALALLSQIYDSTSKIQLNRVFVIGGGELCKAAMEHSRLNRIIATVIHNEVDCDVFFPIDFRSSQSCLPWRKQDHSVLEAWVGSKVPQGKINENGFIYEFEMWIRDI [L65I]: the “selection coefficient … (log2)” value was -0.177 ± 0.082 (methotrexate 8.8 µM) and -0.121 ± 0.039 (methotrexate 44 µM).

Regarding MDWQKSLTLIVALTLSRGIGLKNDLPWKLKSDMMFFSRVTSGLLVTRSTGQMNVVLMGRKTWESLPAHSRPLKNRINVVISRQEVLDLGGGAYHARSLDDALALLSQIYDSTSKIQLNRVFVIHGGELCKAAMEHSRLNRIIATVIHNEVDCDVFFPIDFRSSQSCLPWRKQDHSVLEAWVGSKVPQGKINENGFIYEFEMWIRDI [G124H], the “selection coefficient … (log2)” value was -0.593 ± 0.13 (methotrexate 8.8 µM) and -0.107 ± 0.1 (methotrexate 44 µM).

As for MDWQKSLTLIVALTLSRGIGLKNDLPWKLKSDMMFFSRVTSGLLVTRSTGQMNVVLMGRKTWESLPAHSRPLKNRINVVISRQEVLDLGGGAYHARSLDDALALLSQIYDSTSKIQLWRVFVIGGGELCKAAMEHSRLNRIIATVIHNEVDCDVFFPIDFRSSQSCLPWRKQDHSVLEAWVGSKVPQGKINENGFIYEFEMWIRDI [N118W], the “selection coefficient … (log2)” value was -0.142 ± 0.034 (methotrexate 8.8 µM) and -0.153 ± 0.079 (methotrexate 44 µM).

As for MDWQKSLTLIVALTLSRGIGLKNDLPWKLKSDMMFFSRVTSGLLVTRSTGQMNVVLMGRKTWESLPAHSRPLKNRINMVISRQEVLDLGGGAYHARSLDDALALLSQIYDSTSKIQLNRVFVIGGGELCKAAMEHSRLNRIIATVIHNEVDCDVFFPIDFRSSQSCLPWRKQDHSVLEAWVGSKVPQGKINENGFIYEFEMWIRDI [V78M], the “selection coefficient … (log2)” value was -0.314 ± 0.067 (methotrexate 8.8 µM) and -0.201 ± 0.094 (methotrexate 44 µM).

In the case of MDWQKSLTLIVALTLSRGIGLKNDLPWKLKSDMMFFSRVTSGLLVTRSTGQMNVVLMGRKTWESLPAHSRPLKNRINVVISRQEVLDLGGGAYHARSLDDALALLSQIYDSTSKIQLNRVFVIGGGELCKAAMEHSRLNRIIATVIHNEVDCDVFFPIDFRSSQSCLPWRKQDHSVLEAWVGSKVPQGKINANGFIYEFEMWIRDI [E192A], the “selection coefficient … (log2)” value worked out at 0.065 ± 0.057 (methotrexate 8.8 µM) and 0.0304 ± 0.065 (methotrexate 44 µM).

As for MDWQKSLTLIVALTLSRGIGLKNDLPWKLKSDMMFFSRVTSGLLVTRSTGQMNVVLMGRKTWESLPAHSRPLKNRINVVISRQEVLDLGGGAYHARSLDDALALFSQIYDSTSKIQLNRVFVIGGGELCKAAMEHSRLNRIIATVIHNEVDCDVFFPIDFRSSQSCLPWRKQDHSVLEAWVGSKVPQGKINENGFIYEFEMWIRDI [L105F], the “selection coefficient … (log2)” value is, setting by setting: (methotrexate 8.8 µM) -0.512 ± 0.1; (methotrexate 44 µM) -0.166 ± 0.031.

Regarding MDWQKSLTLIVALTLSRGIGLKNDLPWKLKSDMMFFSRVTSGLLVTRSTGQMNVVLMGRKTWESLPAHSRPLKNRINVVISRQEVLDLGGGAYHARSLDDALALLSQIYDSTSKIQLNRVFVIGGGELCKAAMEHSRLNRIIATVIHNEVDCDVFFPIDFRSSQSCLPQRKQDHSVLEAWVGSKVPQGKINENGFIYEFEMWIRDI [W169Q], the “selection coefficient … (log2)” value runs as follows: (methotrexate 8.8 µM) -0.784 ± 0.022; (methotrexate 44 µM) -0.407 ± 0.03.

For MDWQKSLTLIVALPLSRGIGLKNDLPWKLKSDMMFFSRVTSGLLVTRSTGQMNVVLMGRKTWESLPAHSRPLKNRINVVISRQEVLDLGGGAYHARSLDDALALLSQIYDSTSKIQLNRVFVIGGGELCKAAMEHSRLNRIIATVIHNEVDCDVFFPIDFRSSQSCLPWRKQDHSVLEAWVGSKVPQGKINENGFIYEFEMWIRDI [T14P], the “selection coefficient … (log2)” value reads like this: (methotrexate 8.8 µM) 0.547 ± 0.11; (methotrexate 44 µM) 0.672 ± 0.12.

For the variant MDWQKSLTLIVALTLSRGIGLINDLPWKLKSDMMFFSRVTSGLLVTRSTGQMNVVLMGRKTWESLPAHSRPLKNRINVVISRQEVLDLGGGAYHARSLDDALALLSQIYDSTSKIQLNRVFVIGGGELCKAAMEHSRLNRIIATVIHNEVDCDVFFPIDFRSSQSCLPWRKQDHSVLEAWVGSKVPQGKINENGFIYEFEMWIRDI [K22I], the “selection coefficient … (log2)” value turned out to be 0.0866 ± 0.022 (methotrexate 8.8 µM) and 0.0956 ± 0.097 (methotrexate 44 µM).

As for MDWQKSLTLIVALTLSRGIGLKNDLPWKLKSDMMFFSRVTSGLLVTRSTGQMNVVLMGRKTWESLPAHSRPLKNRINVVISRQEVLDLGGGAYHARSLDDALALLSQIYDSTSKIQLNRVFVIGGGELCKAAMEHSRLNRIIATVIHNEVDCDVFFPIDFRSSQSRLPWRKQDHSVLEAWVGSKVPQGKINENGFIYEFEMWIRDI [C166R], the “selection coefficient … (log2)” value reads like this: (methotrexate 8.8 µM) -0.0668 ± 0.065; (methotrexate 44 µM) -0.115 ± 0.18.

For the variant MDWQKSLTLIVALTLSRGIGLKNDLPWKLKSDMMFFSRVTSGLLVTRSTGQMNVVLMGRKTWESLPAHDRPLKNRINVVISRQEVLDLGGGAYHARSLDDALALLSQIYDSTSKIQLNRVFVIGGGELCKAAMEHSRLNRIIATVIHNEVDCDVFFPIDFRSSQSCLPWRKQDHSVLEAWVGSKVPQGKINENGFIYEFEMWIRDI [S69D], the “selection coefficient … (log2)” value reads like this: (methotrexate 8.8 µM) 0.363 ± 0.029; (methotrexate 44 µM) 0.406 ± 0.028.

As for MDWQKSLTLIVALTLSRGIGLKNDLPWKLKSDMMFFSRVTSGLLVTRSTGQMNVVLMGRKTWESLPAHSRPLKNRINVVISRQEVLDLGGGAYHARSLDDALALLSQIYDSTSKIQLNRVFVIGGGELCKAAMEHSRLNRIIATVIHNEVDCDVFFPIDFRSSQSCMPWRKQDHSVLEAWVGSKVPQGKINENGFIYEFEMWIRDI [L167M], the “selection coefficient … (log2)” value was -0.0256 ± 0.072 (methotrexate 8.8 µM) and -0.0588 ± 0.053 (methotrexate 44 µM).

In the case of MDWQKSLTLIVALTLSRGIGLKNDLPWKLKSDMMFFSRVTSGLLVTRSTGQMNVVLMGRKTWESLPAHSRPLKNRINVVISRQEVLDLGGGAYHARSLDDALALLSQIYDSTSKIQLNRVFVIGGGELCKAAMEHSRLNRIIATVIHNEVDCDVFFPIDFRSSQSCLPWRKQDHSVLEAWVGSKVPQGKINENGFIYEFEDWIRDI [M201D], the “selection coefficient … (log2)” value by setting is: (methotrexate 8.8 µM) -0.0678 ± 0.049; (methotrexate 44 µM) -0.228 ± 0.16.

For MDWQKSLTLIVALTLSRGIGLKNDLPWKLKSDMMFFSRVTSGLLVTRSTGLMNVVLMGRKTWESLPAHSRPLKNRINVVISRQEVLDLGGGAYHARSLDDALALLSQIYDSTSKIQLNRVFVIGGGELCKAAMEHSRLNRIIATVIHNEVDCDVFFPIDFRSSQSCLPWRKQDHSVLEAWVGSKVPQGKINENGFIYEFEMWIRDI [Q51L], the “selection coefficient … (log2)” value was -0.079 ± 0.059 (methotrexate 8.8 µM) and -0.0472 ± 0.073 (methotrexate 44 µM).
